The record followed here is article PMC2175169 (The Journal of Cell Biology, 2000).

The target of this test is authentic E1A 243R protein, purified from bacteria (adenovirus). Description: pull-down.

B1: GST-p21 Δ[…] (domain or fragment)
chain: not shown
In the case of B1, the binding result is listed as “binds”.
